{
  "source": "the RNAGym collection of RNA variant scans (doi:10.1093/nar/gkz1192)",
  "parents": {"B1": {"name": "CPEB3 Ribozyme (parent)", "chain": "UAACAGGGGGCCACAGCAGAAGCGUUCACGUCGCAGCCCCUGUCAGAUUCUGGUGAAUCUGCGAAUUCUGCUGUAUAUCUC"}},
  "note": "Read counts are not given, so values of variants with three or more changes are uncertain.",
  "data": [
    {"variants_of": "B1", "test": "self-cleavage, relative activity (ratio to wild type); higher = more cleavage; in vitro, sequencing", "method_in_brief": "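Relative activity compares each variant's cleaved/total read fraction with that of the unmutated ribozyme. To get these fractions, barcoded CPEB3 ribozyme libraries from rounds of error-prone PCR were transcribed with T7 RNA polymerase for 5 hours at 37°C and then given 15 min of DNase I treatment before EDTA was added. The RNAs were reverse transcribed with template switching and sequenced on Illumina, and DNA sequencing linked barcodes to variants. A minimum of 5 reads applied, and three batches were averaged.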", "values": [
      {"variant": "C27G U58C U69A U72C A75U U80C", "self-cleavage": 0.06},
      {"variant": "C27U A56C U72A", "self-cleavage": 0.15},
      {"variant": "C27G C37G A45U U49A A64G A77G", "self-cleavage": 0.1},
      {"variant": "U26C U43C U72C", "self-cleavage": 0.48},
      {"variant": "U26C U41A A56G", "self-cleavage": 0.47},
      {"variant": "C27A A28G U60A", "self-cleavage": 0.12},
      {"variant": "U26C U41G U51C", "self-cleavage": 0.28},
      {"variant": "U26C U51G U78C", "self-cleavage": 0.3},
      {"variant": "C27A A35U U43C U54C", "self-cleavage": 0.29},
      {"variant": "U26C U51A U69A U80C", "self-cleavage": 0.15},
      {"variant": "C27G C32U U74G A75G U78A", "self-cleavage": 0.04},
      {"variant": "U26C U69C U80C", "self-cleavage": 0.22},
      {"variant": "U26C U41C U48C A56U U60C A65G", "self-cleavage": 0.04},
      {"variant": "C27A C40A U49A A64G", "self-cleavage": 0.17},
      {"variant": "C27A A45G U58A U80A", "self-cleavage": 0.2},
      {"variant": "U26C U41C U60C U80C", "self-cleavage": 0.27},
      {"variant": "U26C U58G U72C A77U", "self-cleavage": 0.15},
      {"variant": "U26C U48C A57U G63A U74A", "self-cleavage": 0.18},
      {"variant": "C27U A57G U80A", "self-cleavage": 0.32},
      {"variant": "U26G U31C U80C", "self-cleavage": 0.33},
      {"variant": "C27U A35G U43A", "self-cleavage": 0.26},
      {"variant": "U26C U43A U78C", "self-cleavage": 0.1},
      {"variant": "C27U C44A A57G", "self-cleavage": 0.14},
      {"variant": "U26G C39U A56G A57U U60A", "self-cleavage": 0.09},
      {"variant": "U26C U54C A56G U69A U76C", "self-cleavage": 0.14},
      {"variant": "U26C U51C U67C C68A", "self-cleavage": 0.26},
      {"variant": "U26C U41A U54A C59A A65G", "self-cleavage": 0.08},
      {"variant": "U26C U51A U69C U76C", "self-cleavage": 0.22},
      {"variant": "C27A U69C A75U", "self-cleavage": 0.13},
      {"variant": "U26C U54C U80C", "self-cleavage": 0.49},
      {"variant": "C27A U60C U74A", "self-cleavage": 0.29},
      {"variant": "C27U C39U U41C A57U U66C", "self-cleavage": 0.1},
      {"variant": "U26G U31A A64G U72A U80C", "self-cleavage": 0.05},
      {"variant": "U26C U41C U69A", "self-cleavage": 0.53},
      {"variant": "U26C U41A U69C U76C U80C", "self-cleavage": 0.07},
      {"variant": "U26C U43A U48C U60C", "self-cleavage": 0.15},
      {"variant": "U26C U41A U54C A75U U80A", "self-cleavage": 0.26},
      {"variant": "U26C U43C U69A A77U", "self-cleavage": 0.35},
      {"variant": "U26C U48C A64U U66C", "self-cleavage": 0.19},
      {"variant": "U26G C44U A56G", "self-cleavage": 0.24},
      {"variant": "U26C U60C U72A", "self-cleavage": 0.07},
      {"variant": "U26C U43C A47G A65U", "self-cleavage": 0.12},
      {"variant": "C27A U31C C37A U66A U78C", "self-cleavage": 0.1},
      {"variant": "C27G A35U A64G U76C", "self-cleavage": 0.11},
      {"variant": "U26G U69C U72C", "self-cleavage": 0.04},
      {"variant": "U26C U49C U72C", "self-cleavage": 0.19},
      {"variant": "U26C U43C A56U", "self-cleavage": 0.24},
      {"variant": "U26G G61C U78A", "self-cleavage": 0.12},
      {"variant": "U26C U41C U51C", "self-cleavage": 0.38},
      {"variant": "U26C U41C U51A", "self-cleavage": 0.45},
      {"variant": "C27A U31C C40U U41G U51C", "self-cleavage": 0.19},
      {"variant": "C27U A45G U72C C79G", "self-cleavage": 0.1},
      {"variant": "U26C U58C U80A", "self-cleavage": 0.14},
      {"variant": "U26C U54C A64G C71U", "self-cleavage": 0.11},
      {"variant": "U26C U66C A75G", "self-cleavage": 0.37},
      {"variant": "U26C U69A U72C", "self-cleavage": 0.33},
      {"variant": "U26C U41G A47G G55A", "self-cleavage": 0.08},
      {"variant": "C27U A35G C50U", "self-cleavage": 0.39},
      {"variant": "U26C U60A U78C", "self-cleavage": 0.26},
      {"variant": "U26C U76C U80A", "self-cleavage": 0.6},
      {"variant": "U26C U43G A57U C71A U74G", "self-cleavage": 0.15},
      {"variant": "U26G U41C U69C", "self-cleavage": 0.08},
      {"variant": "C27A A45C G70U U78C", "self-cleavage": 0.13},
      {"variant": "C27A A47U U48A A65G U74A", "self-cleavage": 0.05},
      {"variant": "U26C U51C U72C", "self-cleavage": 0.52},
      {"variant": "C27G U43C A64C A65G U67C", "self-cleavage": 0.25},
      {"variant": "U26C U48C U67C U72A", "self-cleavage": 0.14},
      {"variant": "C27A C32U C37G U67C U72A U80C", "self-cleavage": 0.12},
      {"variant": "U26C U43C A45G U51C A57G A65G", "self-cleavage": 0.35},
      {"variant": "U26C U49C U58C C59A U69A U78C", "self-cleavage": 0.09},
      {"variant": "U26G C34U A64G", "self-cleavage": 0.05},
      {"variant": "U26C U41A U60C U72C", "self-cleavage": 0.21},
      {"variant": "U26C U67G C79A", "self-cleavage": 0.12},
      {"variant": "U26C U51C U58C A64G U69C C71U", "self-cleavage": 0.11},
      {"variant": "C27A C39U C44U A45G", "self-cleavage": 0.13},
      {"variant": "U26G A28G G36U U74C", "self-cleavage": 0.2},
      {"variant": "U26C U41C U74C", "self-cleavage": 0.63},
      {"variant": "U26C U69C U76C U80C", "self-cleavage": 0.47},
      {"variant": "U26G C50U U76C", "self-cleavage": 0.33},
      {"variant": "U26G A35C A45G A57G A64U U66A", "self-cleavage": 0.05},
      {"variant": "U26C U48C U51C U60A A75G", "self-cleavage": 0.04},
      {"variant": "C27A A45U U49A U51C", "self-cleavage": 0.09},
      {"variant": "U26C U48A U69C", "self-cleavage": 0.41}
    ]}
  ]
}
